“And” between values parts separate entries of the source, which are not always exact repeats. Equal entries are not always repeated. Out of some 94,000 compounds screened, about 6,200 (6.6%) were called active. This list was built around the results that the source calls inconclusive (neither active nor inactive); the mix of calls is not that of the screen. Calls follow the shape of the dose curve; as a rule, active = well fitted inhibition curve with a large enough effect; inconclusive = small, poorly fitted or top-dose-only effect; inactive = flat fitted curve, though single readings scatter. Potencies beside an inconclusive call are fits to weak or partial responses and may not hold up.
test: Cytotoxic Profiling in HEK 293 Cell Line of Diverse Libraries Using Quantitative High-Throughput Screening; conditions: HEK 293 viability, ATP luminescence (CellTiter-Glo), 48-72 h; activity change, negative = cytotoxicity: at 115 µM (top of the series) unless noted; series mostly up to 115 µM; also: nearly all actives have a fitted effect of over 60% in size
Summary of the method: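 HEK 293 cells at 250 cells/well were exposed to compounds by pintool transfer for 48 or 72 hr at 37 degree Celsius, 5% CO2. Viability was read as ATP-coupled luminescence with CellTiter-Glo after 10 min at room temperature.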
% is scaled to controls: 0 for no effect and ±100 for the full control effect; potency is read from the fitted curve at half-maximal effect; tags tell the direction and shape of the fitted curve.

| Compound | activity change, negative = cytotoxicity | Potency |
| --- | --- | --- |
| C[S+](=O)([O-])c1cccc(-c2nnc3ccc(C(=O)NCCCc4ccccc4)cn23)c1 | inactive: -13.9% |  |
| COC(=O)CNC(=O)C1CCN(C(=O)c2ccc(-c3cccs3)cc2)CC1 | inactive: -12.7% |  |
| COc1ccccc1-c1ccc(C(=O)N2CCC(NC(=O)Cc3ccc(F)cc3)CC2)cc1 |  | inconclusive: 50.1 µM [inhibitor, partial curve, poor fit] and inconclusive: 56.2 µM [inhibitor, partial curve, poor fit] |
| Cc1ccccc1CC(=O)N1CCC2(CC1)NC(=O)N(c1cccc(F)c1)N2 |  | inconclusive: 39.8 µM [inhibitor, partial curve] |
| CO[C@H]1C(=O)N(C2CCN(S(=O)(=O)c3c(C)noc3C)CC2)[C@H]1c1ccncc1 | inactive: -6.95% |  |
| O=C(c1nc(-c2ccc(Cl)cc2)c2cnccn12)N1CCOCC1 |  | inconclusive: 100 µM [inhibitor, partial curve] |
| Cc1nn(-c2cccc(Br)c2)c(C)c1[C@@H]1C=C[C@@H](NC(=O)CC2(CC(=O)O)CCCC2)C1 |  | inconclusive: 100 µM [inhibitor, single point] |
| O=C(c1ccccc1Cl)N1CCC2(C1)C(=O)N(CCc1ccccc1)c1ccccc12 (configuration not stated) |  | active: 39.8 µM and inconclusive: 50.1 µM [inhibitor, partial curve, poor fit] |
| Cc1noc(C2CC3(CCN(C(=O)CCCc4ccccc4)CC3)CN2C)n1 (configuration not stated) | inactive: -20.5% |  |
| CCc1ccccc1S(=O)(=O)N1CCC2(CC1)C(=O)N(CC)c1ccccc12 |  | inconclusive: 8.91 µM [inhibitor, full curve, poor fit] |
| O=C(NCc1ccccc1Cl)c1ccc2oc(-c3ccccn3)nc2c1 |  | inconclusive: 50.1 µM [inhibitor, partial curve, poor fit] |
| CC1=C[C@@H](CNS(=O)(=O)c2cccc(C#N)c2)[C@H](C(C)C)C[C@H]1CC(=O)N(C)Cc1cccnc1 |  | active: 39.8 µM |
| c1cnc2nc(-c3ccsc3)[nH]c2c1 |  | inconclusive: 141 µM [inhibitor, single point] and active: 126 µM |
| O=C(c1ccc(F)c(F)c1)N1C[C@@H](CO)[C@H](c2ccncc2)C1 | inactive: -5.79% |  |
| O=C(CC1CCCN(c2cnn(CC3CC3)c(=O)c2)C1)NCc1cc(F)ccc1F (configuration not stated) |  | inconclusive: 50.1 µM [inhibitor, partial curve, poor fit] |
| O=C(NCc1ccc(F)cc1)c1cn2cc(-c3ccccc3)sc2n1 |  | active: 79.4 µM |
| Cc1ccc(C(=O)N2CCC(N3C(=O)C4(CCCCC4)C3c3ccncc3)CC2)s1 (configuration not stated) | inactive: -14.8% |  |
